Drawing on PubChem BioAssay AID463173 (ICCB-Longwood Screening Facility, Harvard Medical School, 2010), this text covers survival for 89 compounds.

Molecules are shown by their SMILES. Screen size: about 52,000 compounds; about 4,300 (8.3%) were called active. No stated cut-off is given here; in the data, active means survival mostly below about 52% (no sharp cut-off); inactive means mostly above about 56%. The list shows a part of the results.

In the experiment the test system is DeltatarO mutant. Briefly: growth inhibition of S. aureus wild type versus tarO mutant, primary screen, teichoic acid synthesis inhibitors, RN4220, OD600 (AID 463173). The conditions noted are these: OD600, 18 h, stronger effect = lower value, screened at 18.75 µg/mL (by protocol).
`CCOC(=O)c1noc2ncn(CC(=O)Nc3ccc(C)c(F)c3)c(=O)c12`: the survival is inactive: 82%.

Turning to `Cc1cccc(NC(=O)CCS(=O)(=O)c2ccc3c(c2)n(C)c(=O)c(=O)n3C)c1C`, the survival is inactive: 129%. On to `CCOC(=O)C1CCCN(C(=O)c2nn(-c3ccc(OC)cc3)c(=O)c3c2c2ccccc2n3C)C1` (centres undefined), for which the survival was inactive: 114%.

`Nc1nc(Nc2ccccc2F)sc1C(=O)c1ccc(Cl)cc1`: the survival was active: 2%. For `CCc1cccc(NC(=O)C2CCN(C(=O)c3cnn(-c4ccccc4)c3-n3cccc3)CC2)c1`, the survival was inactive: 61%. Under `Cc1ccc(-n2nc(CO)c(C(=O)NCc3ccccn3)n2)cc1C` stands inactive: 111%.

In the case of `CC1CCn2c(nc3cc(C(=O)NCCc4ccc(Cl)cc4)ccc32)C1` (centres undefined), the survival was inactive: 102%.

For `COc1ccccc1/C=C/C(=O)N1CCC(C(N)=O)CC1`, the survival is inactive: 99%. Under `C=CCNC(=O)c1ccccc1NC(=O)C1COc2ccccc2O1` (centres undefined) stands inactive: 79%. Turning to `c1ccc(CCCNc2ncccn2)cc1`, the survival is inactive: 102%. The value for `COc1ccc(N2CC(NC(=O)COc3ccccc3)CC2=O)cc1OC` (centres undefined) was inactive: 90%; that for `Cn1c(=O)c2c(nc(NCc3ccccc3)n2Cc2ccccc2)n(C)c1=O` was active: 38%; that for `Cn1c(=O)c2c(SCC(=O)NCc3ccco3)nc(-c3ccccc3)nc2n(C)c1=O` was inactive: 76%. `CCOC(=O)c1cnc2ccc(OC)cc2c1NCCc1ccccc1`: the survival is active: -2%. As to `CN(c1ncnc2onc(-c3cccc(Cl)c3)c12)C1CCCCC1`, the survival is active: -17%. The value for `CCc1ccc(-n2nc3cc(C)c(NC(=O)c4cccc5ccccc45)cc3n2)cc1` was inactive: 76%. Turning to `N#CC(Cc1cccnc1)C(=O)Nc1ccccc1` (centres undefined), the survival is inactive: 94%.

`CN(CC(=O)Nc1cccc(C(F)(F)F)c1)S(=O)(=O)c1cccs1`: the survival is inactive: 81%. Regarding `CCOc1ccc(S(=O)(=O)Nc2ccc3c(c2)N(C(C)=O)CCC3)cc1`, the survival is inactive: 72%.

As to `COC(=O)C(C)Sc1ncnc2c1c(-c1ccccc1)cn2-c1ccc(F)cc1` (centres undefined), the survival was inactive: 76%. The value for `Cc1cccc(C)c1-n1ncc(C(=O)N2CCN(c3ccccc3)CC2)c1C1CCN(C(=O)OC(C)(C)C)CC1` was inactive: 94%; that for `COc1cccc(CN(CCCN2CCOCC2)C(=O)c2cc3sccc3n2Cc2ccccc2)c1` was inactive: 70%. Under `O=C(Cn1c(-c2cccs2)cc2ccccc21)NCCc1ccc(Cl)cc1` stands inactive: 123%; under `CCOc1ccccc1NC(=O)c1cc2c(=O)oc3ccccc3c2s1`, inactive: 97%; under `COc1ccc2c(c1)C(c1ccc(N3CCOCC3)cc1)=NNC(c1cccnc1)=N2`, inactive: 92%. On to `Cc1cncn1CCc1nc2c3ccccc3nc(SCC(=O)Nc3cccc(Cl)c3)n2n1`, for which the survival is inactive: 78%. The value for `O=C(c1ccc(CSc2nc3ccncc3n2Cc2cccc(F)c2)cc1)N1CCCCCC1` was inactive: 59%; that for `COC(=O)c1cnc(N2CCN(c3ccccc3F)CC2)c2ccccc12` was inactive: 86%. The value for `Cc1ccc(NC(=O)C2CCN(c3nc4ccccc4[nH]3)CC2)c(C)c1` was inactive: 103%; that for `Cc1ccc(Cn2c(=O)n(CCCC(=O)NCc3ccccc3Cl)c(=O)c3ccccc32)cc1` was inactive: 119%. The value for `COc1ccc(OC)c(NC(=O)c2c(NCc3cccs3)sc3c2CCCC3)c1` was inactive: 99%; that for `CCc1ccccc1NC(=O)c1cc(S(=O)(=O)N2CCCC2)cn1C` was inactive: 76%. `Cc1cccc(N2CCN(C(=O)CCc3c(C)nc4ncnn4c3C)CC2)c1C`: the survival is inactive: 79%. The value for `COCCN1C(=O)c2[nH]nc(-c3cc(C)ccc3O)c2C1c1ccc(C(C)C)cc1` (centres undefined) was active: 1%; that for `COc1ccccc1NC(=O)NCCN1CCN(c2cccc(Cl)c2)CC1` was inactive: 77%; that for `CC(C)c1cccc(C(C)C)c1NC1=NS(=O)(=O)c2ccccc21` was inactive: 76%. With `COc1ccc(C(=O)N(CC(=O)NC2CCCC2)C2CCCCC2)cc1OC`, the survival was inactive: 75%. Under `O=C(Cc1ccccc1)Nc1cccc(-c2cn3cccnc3n2)c1` stands inactive: 91%; under `Cc1ccc(-c2nc(SCC(=O)NCc3ccco3)c3c(=O)n(C)c(=O)n(C)c3n2)cc1`, inactive: 85%. The value for `Cc1ccc(Nc2nnc(-c3ccc(C)c(S(=O)(=O)NCc4nc5ccccc5[nH]4)c3)c3ccccc23)cc1` was inactive: 77%; that for `COc1ccc2[nH]c(=O)c(CN(Cc3cccs3)C(=O)c3cccs3)cc2c1` was inactive: 87%. The value for `CC(C)c1ccc(NC(=O)Cn2c(=O)n(CCc3ccccc3)c(=O)c3ccccc32)cc1` was inactive: 82%.

On to `CCc1cccc(CC)c1NC(=O)CN1C(=O)C(=O)c2ccccc21`, for which the survival was inactive: 70%. Under `Cc1ccc(-c2nnc(Nc3cccc(O)c3)c3ccccc23)cc1S(=O)(=O)N1CCN(C)CC1` stands inactive: 97%; under `CC1CCCCN1c1nnc(NC(=O)Nc2ccccc2F)s1` (centres undefined), inactive: 63%; under `Cc1ccc(/C=C/c2nc3ccccc3[nH]2)cc1`, inactive: 67%. The value for `CCc1ccc(NC(=O)CCS(=O)(=O)c2ccc3c(c2)n(C)c(=O)c(=O)n3C)cc1` was inactive: 80%; that for `CC(C)COc1ccc(C(=O)N(Cc2ccc(N(C)C)cc2)Cc2ccco2)cc1` was inactive: 71%. The value for `CCC(Cn1nnc2ccccc2c1=O)NC(=O)Nc1ccc(C)c(C)c1` (centres undefined) was inactive: 45%; that for `CS(=O)(=O)CCC(C(=O)Nc1cccc(C(F)(F)F)c1)N1Cc2ccccc2C1=O` (centres undefined) was active: 17%. As to `O=C(c1ccco1)c1cn(CCOc2ccc(F)cc2)c2ccccc12`, the survival was inactive: 99%.

As for `CC1CCCN(C(=O)c2cc3c(Cl)nc4ccccc4c3s2)C1` (centres undefined), the survival is active: -5%. The value for `Cc1ccc(OCc2nc3ccccc3n2CCOc2ccc(Cl)cc2)cc1` was active: 15%. Under `COc1ccc(Cl)cc1NC(=O)CN1C(=O)COc2ccc(S(=O)(=O)NC3CCCC3)cc21` stands inactive: 86%; under `COc1ccc(-c2cc(C(=O)Nc3c(C)nn(Cc4ccc(C)cc4)c3C)no2)cc1OC`, inactive: 60%; under `Cc1ccc(-c2nnc(Nc3ccc(O)cc3)c3ccccc23)cc1S(=O)(=O)N1CCOCC1`, inactive: 65%. As for `CCOC(=O)c1cc(-c2ccccc2)n(-c2cccc(C(=O)Nc3ccc(OCC)cc3)c2)c1C`, the survival is active: 37%. For the compound `Cc1ccc(Nc2nn3c(=O)c4cc5c(cc4nc3s2)OCO5)cc1Cl`, the survival is inactive: 59%. Under `Cc1nc2nc(SCC(=O)NCc3ccccc3Cl)nn2c(C)c1Cc1ccccc1` stands inactive: 64%; under `Cc1ccc(NC(=O)CC(C)S(=O)(=O)c2ccc3c(c2)NC(=O)CO3)cc1Cl` (centres undefined), inactive: 83%. The value for `CCc1ccc(NC(=O)C(CC)n2c(=O)c(C(F)(F)F)nc3ccccc32)cc1` (centres undefined) was inactive: 102%; that for `CCc1nc(-c2cc(S(=O)(=O)N3CCN(c4ccccc4OC)CC3)ccc2OC)no1` was active: 42%.

As for `COc1cc(Cl)c(C)cc1Nc1ncnc2c1nc1n2CCCC1`, the survival is inactive: 85%.

Regarding `CCOC(=O)Cn1c(=O)c2c(nc3n2CCN3c2ccc(CC)cc2)n(C)c1=O`, the survival was inactive: 79%.

In the case of `CC(=O)Nc1ccc(NC(=O)CSc2nccn2C)cc1`, the survival was inactive: 73%. Under `COCCNc1sc(S(=O)(=O)c2ccc(C)cc2)nc1S(=O)(=O)c1ccc(C)cc1` stands inactive: 108%; under `C=CCc1c(C)[nH]c(=S)[nH]c1=S`, inactive: 79%. The value for `COc1cc(NC(=O)CC2C(=O)N(c3cccc(C)c3)C(=O)N2Cc2ccc(F)cc2)cc(OC)c1` (centres undefined) was inactive: 94%.

As for `CCOC(=O)c1cc2c(=O)n3ccccc3nc2n(CC(C)C)c1=NC(=O)c1c(-c2c(F)cccc2Cl)noc1C`, the survival is inactive: 165%. For `CCCN(C(=O)c1noc2c1COc1ccc(C)cc1-2)c1ccc(Cl)c(Cl)c1`, the survival was inactive: 105%.

On to `COC(=O)c1ccccc1NC(=O)c1c(NC(=O)c2ccco2)sc2c1CCC(C(C)(C)C)C2` (centres undefined), for which the survival was inactive: 137%.

With `CN(C(=O)CSc1cn(CC(=O)N2CCOCC2)c2ccccc12)c1ccccc1`, the survival is inactive: 80%.

On to `CCCCN(CC)CCNC(=O)Cn1cc2c(n1)-c1c(oc(C(=O)N3CCCC3)c1C)CC2`, for which the survival was inactive: 85%. The value for `COc1cccc(Cn2c(=O)n(Cc3ccco3)c(=O)c3oc4ccccc4c32)c1` was inactive: 66%; that for `CC(=O)N1CCCc2cc(S(=O)(=O)N3CCC(C(=O)NCc4cccc(C)c4)CC3)ccc21` was inactive: 75%. The value for `CCCOc1cccc(C(=O)N(Cc2ccc(C)o2)C2CCS(=O)(=O)C2)c1` (centres undefined) was inactive: 90%.

Take `CCN(C(=O)CCn1cnc2onc(-c3ccc(F)cc3)c2c1=O)c1ccc(OC)cc1`: the survival was inactive: 73%. With `CCOc1ccc(C(=O)Nc2ccc(S(=O)(=O)N3CCOCC3)cc2)cc1OCC`, the survival is inactive: 72%. The value for `CCc1cccc(-n2nnc(-c3nc(-c4ccccc4Cl)no3)c2N)c1` was inactive: 91%; that for `CCN(CC)C(=O)c1sc2c(c1C)c(=O)n(Cc1ccccc1)c(=O)n2Cc1ccc(Cl)cc1` was inactive: 80%; that for `O=C(CCS(=O)(=O)c1nc(-c2ccc3c(c2)OCO3)cc(C(F)(F)F)n1)Nc1ccccc1F` was inactive: 88%. With `COCCNC(=O)c1cc2nc3c(c(C(F)(F)F)n2n1)CCc1ccccc1-3`, the survival is inactive: 86%. The value for `NS(=O)(=O)c1cccc(S(N)(=O)=O)c1` was inactive: 75%; that for `O=c1oc2ccccc2c(O)c1CN1CCCCC1` was active: 25%; that for `CC(C)c1ccc(NC(=O)c2cccc3c2C(=O)N(C2CCCCC2)C3)cc1` was active: -10%.

Turning to `CCCc1nc2ccccc2n2c(-c3ccc(C)cc3)c3c(=O)n(C)c(=O)n(C)c3c12`, the survival is inactive: 68%. Consider `Cc1ccc2c(c1)N(CC(=O)NCc1ccccc1Br)C(=O)c1cccnc1O2`, for which the survival was inactive: 81%.

In the case of `CCOCCCNC(=O)C(c1ccc(C)cc1)N(Cc1cccs1)C(=O)c1ccc(NC(C)=O)cc1` (centres undefined), the survival was inactive: 179%. Under `CCCc1cc(NCc2cccnc2)n2c(nc3ccccc32)c1C#N` stands inactive: 107%.
